Screen size: about 310,000 compounds; about 14,000 (4.5%) showed an effect of 50% or more. Effects have a minus sign here. This is one part of the list.
target: human ether-à-go-go-related gene (hERG) potassium channel (human, UniProt Q12809); test: primary screen, population patch clamp on CHO cells stably expressing hERG
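Note: peak tail current of the secondary pulse compared with the same well before compound.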

Sequence of human ether-à-go-go-related gene (hERG) potassium channel (Q12809 whole entry, looked up): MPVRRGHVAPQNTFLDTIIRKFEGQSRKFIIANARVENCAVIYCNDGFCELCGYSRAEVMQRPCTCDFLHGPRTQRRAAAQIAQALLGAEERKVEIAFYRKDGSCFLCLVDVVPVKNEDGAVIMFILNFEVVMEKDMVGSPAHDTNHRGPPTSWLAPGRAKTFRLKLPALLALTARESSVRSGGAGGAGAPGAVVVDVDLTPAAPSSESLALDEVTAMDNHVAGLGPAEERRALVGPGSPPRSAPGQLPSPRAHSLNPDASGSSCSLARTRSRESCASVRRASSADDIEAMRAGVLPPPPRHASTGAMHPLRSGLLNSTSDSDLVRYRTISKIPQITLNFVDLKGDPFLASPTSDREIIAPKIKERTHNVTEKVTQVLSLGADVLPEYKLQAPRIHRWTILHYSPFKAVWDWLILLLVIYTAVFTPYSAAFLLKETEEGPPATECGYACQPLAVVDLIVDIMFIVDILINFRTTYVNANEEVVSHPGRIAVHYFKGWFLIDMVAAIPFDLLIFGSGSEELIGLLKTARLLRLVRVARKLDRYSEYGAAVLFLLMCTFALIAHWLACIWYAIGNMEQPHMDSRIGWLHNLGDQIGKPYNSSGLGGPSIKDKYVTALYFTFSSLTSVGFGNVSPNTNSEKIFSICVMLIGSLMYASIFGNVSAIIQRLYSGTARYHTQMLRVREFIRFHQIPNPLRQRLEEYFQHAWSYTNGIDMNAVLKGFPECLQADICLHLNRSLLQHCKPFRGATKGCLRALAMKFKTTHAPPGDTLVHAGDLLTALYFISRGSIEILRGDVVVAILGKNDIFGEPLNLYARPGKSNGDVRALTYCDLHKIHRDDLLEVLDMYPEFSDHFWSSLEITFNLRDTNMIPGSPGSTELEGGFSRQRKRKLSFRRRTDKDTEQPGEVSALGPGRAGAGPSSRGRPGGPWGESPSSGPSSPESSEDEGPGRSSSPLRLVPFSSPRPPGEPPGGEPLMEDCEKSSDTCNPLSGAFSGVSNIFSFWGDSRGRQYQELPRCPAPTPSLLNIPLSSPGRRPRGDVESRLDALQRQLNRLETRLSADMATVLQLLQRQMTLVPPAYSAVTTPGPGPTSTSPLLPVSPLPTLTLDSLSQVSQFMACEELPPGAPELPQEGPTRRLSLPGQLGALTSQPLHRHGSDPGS

| SMILES | hERG current change (%, negative = inhibition) at 10uM [%] |
| --- | --- |
| CCC(CC)C(=O)Nc1ccccc1NC(C)=O | 2.8 |
| Cc1ccc(C(=O)NCCC(=O)N2CCC3(CC2)NCCc2[nH]cnc23)cc1 | 4.08 |
| O=C(Cn1nc2n(c1=O)-c1ccccc1SC2)N/N=C/c1ccncc1 | -1.97 |
| COc1ccc(-n2c(C)cc(-c3csc(NC(=O)c4ccc(S(=O)(=O)N(C)C)cc4)n3)c2C)cc1 | 5.99 |
| O=C(c1ccc([N+](=O)[O-])c(CS(=O)(=O)c2ccc(Cl)cc2)c1)N1CCCC1 | -31.4 |
| O=C(Nc1nc(-c2cccs2)c(-c2ccccc2)s1)c1ccco1 | 9.98 |
| Cn1c(CCCNC(=O)c2cccs2)nc2ccccc21 | -7.37 |
| Cc1ccc(CNC(=O)C2C3C=CC(C3)C2C(=O)O)cc1 (stereo not drawn) | -3.26 |
| CC(CCc1ccccc1)NCc1ccc(Cl)cc1Cl.O=C(O)C(=O)O (stereo not drawn) | -31.5 |
| COc1ccccc1OCCNC(=O)CN(c1cccc(C)c1)S(=O)(=O)c1ccccc1 | -30.8 |
| Cc1cccc(NC(=S)NC(=O)c2ccc(Br)o2)c1C | -14.3 |
| COc1ccc(C(=O)Nc2ccc3[nH]ccc3c2)cc1OC | 3.46 |
| Cc1ccc(-c2nc3ccccc3c(=O)n2NC(=S)N(C)C)cc1 | 2.01 |
| CC(C)c1cc(CNC(=O)c2ccc(OC3CCN(Cc4ccccn4)CC3)cc2)on1 | -16.1 |
| CCOc1ccc(/C=C/c2nc(C#N)c(NCCCOC)o2)cc1 | 4.86 |
| O=C(NCc1ccc2c(c1)OCO2)c1ccc(Br)cc1 | -19.8 |
| CN1C(=O)C2C[C@@]3(Br)c4ccccc4N(OOSc4ccccc4)[C@H]3N2C(=O)[C@@H]1Cc1ccccc1 (stereo partly drawn) | -13.6 |
| O=C1/C(=C/c2ccncc2)N2CCC1CC2 | 2.32 |
| Br.COc1ccc(Nc2nc(-c3ccc(OC)cc3)cs2)cc1 | 19.2 |

| SMILES | hERG current change (%, negative = inhibition) at 10uM [%] |
| --- | --- |
| COc1ccc(Cl)cc1S(=O)(=O)N1CCCC(C(=O)NCC(N)=O)C1 (stereo not drawn) | -9.16 |
| O=C(Nc1cccc(-c2cn3cccnc3n2)c1)c1ccco1 | 8.04 |
| O=C(CSc1nc2c(sc3ccccc32)c(=O)n1Cc1ccccc1)NCC1CCCO1 (stereo not drawn) | 16.8 |
| O=C(O)Cn1c2c(c3ccccc31)CCCC2 | 7.39 |
| COc1cc(C2c3[nH]c4ccccc4c3C[C@H]3C(=O)N(C4CC4)CC(=O)N23)ccc1OC(C)C (stereo partly drawn) | -36.9 |
| COc1ccc(/C=N/NC(=S)Nc2ccccc2)cc1COc1ccc(F)cc1 | -4.64 |
| c1ccc2oc(C3=NNC(=NC4CC4)SC3)cc2c1 | -58.5 |
| c1ccc(Cc2nn3c(Cn4cnc5ccccc54)nnc3s2)cc1 | -17.7 |
| NC(=O)c1ccccc1NCC(=O)c1ccc(F)cc1 | -35.2 |
| O=S(=O)(c1ccc(F)cc1)c1nc(-c2ccco2)oc1Nc1ccccc1 | -9 |
| CC(C)(C)c1ccc(S(=O)(=O)NCC(=O)N2CCCC2)cc1 | 7.42 |
| Cc1cc(-c2ccccc2)nc(N(C)NC(=O)c2ccc(Cl)cc2)c1S(C)(=O)=O | 0.236 |
| CC1=C(C)CC(C(=O)NCC(=O)c2ccccc2)C(C(=O)O)C1 (stereo not drawn) | -3.55 |
| CN(C)c1ccc(N/C=C/C(=O)c2ccccc2)cc1 | 4.66 |
| Cc1ccccc1C(=O)c1cccn1CC(=O)NCc1ccc(Cl)cc1 | -7.19 |
| COc1ccc(OC)c(NC(=O)CNC(c2ccccc2)c2ccccc2)c1 | 14.1 |
| CCOc1ccc2c(c1)ncn2Cc1ccccc1 | 8.33 |
| O=C(c1ccco1)c1cc2c(ccc3ccccc32)oc1=O | 2.17 |
| CCN(c1ccc(OC)cc1)S(=O)(=O)c1csc(C(N)=O)c1 | 6.68 |

| SMILES | hERG current change (%, negative = inhibition) at 10uM [%] |
| --- | --- |
| Cn1c(=O)c2c(nc(N3CCOCC3)n2CCSc2ncccn2)n(C)c1=O | 0.639 |
| COc1ccc(NC(=O)c2nn(C)c(=O)c3ccccc23)cc1S(=O)(=O)Nc1ccccc1Cl | 26 |
| CCn1cnnc1SCC(=O)NCC1COc2ccccc2O1 (stereo not drawn) | 13.6 |
| CCC1CCc2sc(C(=O)O)cc2C1 (stereo not drawn) | -15.7 |
| CC(C)CNS(=O)(=O)c1cc(C(=O)OCC(=O)N2CCOCC2)c(Cl)cc1Cl | -17.8 |
| CN(Cc1cnn(C)c1)S(=O)(=O)c1cccc([N+](=O)[O-])c1 | 6.52 |
| CCC(Sc1nc2cc3c(cc2c(=O)n1Cc1ccco1)OCO3)C(=O)Nc1cccc(OC)c1 (stereo not drawn) | -4.76 |
| Cc1sc2ncnc(OCC(=O)c3ccc(S(=O)(=O)N4CCCC4)cc3)c2c1C | -4.53 |
| O=C(O)c1cc(NN=Nc2ccc(Br)cc2)cc([N+](=O)[O-])c1 | 10.7 |
| COc1ccc(C(=O)NNC2=NC(C)(C)Cc3ccccc32)cc1 | 20.6 |
| O=C(CNC(=O)c1ccc(OC(F)F)cc1)NC1CCCc2ccccc21 (stereo not drawn) | -16.2 |
| Nc1nc(SCC(=O)NC2CCCc3ccccc32)n[nH]1 (stereo not drawn) | -10.1 |
| CCn1c(SCC(=O)Nc2ccc(F)cc2)nc2ccccc2c1=O | 1.12 |
| CCCc1cc(=O)oc2c(C)c(OCC(=O)Nc3cccnc3)ccc12 | -63.6 |
| CCOc1ccccc1CN1CCN(C2CCOCC2)CC1CCO (stereo not drawn) | 9.47 |
| CCOC(=O)c1cnc(SC2CC(=O)N(c3cccc(OC)c3)C2=O)nc1N (stereo not drawn) | -17.4 |
| CN(C)CCNC(=O)COc1cccc(Cl)c1 | 8.52 |
| COc1ccc(-n2c(=S)[nH]c3ccccc3c2=S)cc1 | 32 |
| CC(C)[C@H](NC(=O)CCCn1nnc2ccccc2c1=O)C(=O)O | 20.9 |

— paper PMC4336329 (PLoS ONE, 2015)
